{"source": "the supplement of paper PMC11417369", "note": "± gives the standard deviation of the averaged measurements. The list shows a part of the results."}
{"tested_on": "PfAP2-G AP2 domain (GST-tagged)", "experiment": "gcPBM binding intensity (ln(normalized median fluorescence intensity)); higher = stronger DNA binding", "outline": "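An Agilent 4 × 180k array of primer-extended double-stranded 36-bp intergenic genomic probes, with negative controls, was incubated for 1 h with GST-tagged P. falciparum DNA-binding domains expressed in E. coli. Alexa488 anti-GST antibody detected bound protein, scanned at 488 nm. Binding intensity is the highest Masliner-normalised natural-log median intensity across replicate spots of either probe orientation.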"}
{"sequence": "AATGTATAAAAGTTTTGTACATATTCTCACACATAT [XGTACX_site965]", "gcPBM binding intensity (ln)": "10.8 ± 0.51"}
{"sequence": "ATATACCATATGCATGGTACACATTTACAACAAAAA [XGTACX_site3142]", "gcPBM binding intensity (ln)": "11 ± 0.52"}
{"sequence": "TAGTTGTGAGTTACATGTACATGTATTTATTTTTTA [XGTACX_site7088]", "gcPBM binding intensity (ln)": "11.3 ± 0.81"}
{"sequence": "TATATATATATATATACATGCATTTCTCATGTACAT [TGCATGCA_site621]", "gcPBM binding intensity (ln)": "10.8 ± 0.73"}
{"sequence": "TATAACAAGTAATGGTGTACATTATATTATGTAATA [XGTACX_site2761]", "gcPBM binding intensity (ln)": "11.4 ± 0.93"}
{"sequence": "CATATGCGTCTTGCCTTGCACACTTTTATGAAAAAA [CACACA_site2055]", "gcPBM binding intensity (ln)": "10.4 ± 0.26"}
{"sequence": "TAATACTTAAAATGTTGTACATAATAATTTTATATT [XGTACX_site5403]", "gcPBM binding intensity (ln)": "11.4 ± 0.7"}
{"sequence": "TATAAAAATAAGTATACACACAAAATGCGTAACTTT [CACACA_site1295]", "gcPBM binding intensity (ln)": "10.2 ± 0.26"}
{"sequence": "TACATTAAACGAATAGTGCAAGAAGTATTCGTATAA [GTGCAC_site9939]", "gcPBM binding intensity (ln)": "10.4 ± 0.16"}
{"sequence": "ATAAATACATTAAAATGTACATAAAAATATTACTGG [XGTACX_site1484]", "gcPBM binding intensity (ln)": "11.2 ± 0.67"}
{"sequence": "GTCATCATAATCTATTGTACAAAAATTTATACAGAT [XGTACX_site1059]", "gcPBM binding intensity (ln)": "10.9 ± 0.57"}
{"sequence": "AATATTATAAATGATACACACTTAAAATACAGACAC [CACACA_site8868]", "gcPBM binding intensity (ln)": "10.5 ± 0.31"}
{"sequence": "AATTACTTAAATTATTGTACCCTAATGTTAATTTCA [XGTACX_site825]", "gcPBM binding intensity (ln)": "11.2 ± 0.62"}
{"sequence": "TTATGTAGTATAATGAGTACTAAATATAGATATGTT [XGTACX_site6335]", "gcPBM binding intensity (ln)": "11 ± 0.64"}
{"sequence": "TTAATTTTGGTAAATGCATGTAATTAAAAATAAAAA [TGCATGCA_site234]", "gcPBM binding intensity (ln)": "10.1 ± 0.27"}
{"sequence": "ATATTGAAATTAAAAAAATATATGAACAAATGATGA [CACACA_negctrl_site602]", "gcPBM binding intensity (ln)": "9.975 ± 0.064"}
{"sequence": "TAAATTTTTTTTTTTTGTACACAAAAATATAATATT [XGTACX_site8151]", "gcPBM binding intensity (ln)": "11.4 ± 0.98"}
{"sequence": "TTTTATATCTACCTTTGTACATATTTATTTTTTTTA [XGTACX_site7872]", "gcPBM binding intensity (ln)": "11 ± 0.53"}
{"sequence": "TTCATAAAAAATGTAGTGCATTGAATAAAATTACAT [GTGCAC_site9393]", "gcPBM binding intensity (ln)": "10.1 ± 0.18"}
{"sequence": "TTTATAAAAAGCATAACACACACATGTCAATATATA [CACACA_site8286]", "gcPBM binding intensity (ln)": "10.12 ± 0.035"}
{"sequence": "AACATACGACAATACGCACACATATAAGTACATATT [CACACA_site8584]", "gcPBM binding intensity (ln)": "11.5 ± 0.84"}
{"sequence": "TATTTTGAAATGGAAAGGATATAGAACTTAAACAAA [CACACA_negctrl_site1530]", "gcPBM binding intensity (ln)": "9.87 ± 0.042"}
{"sequence": "TTTCTTTAGTAGAATGTAAAAAATATAATCTTCTTA [TGCATGCA_negctrl_site298]", "gcPBM binding intensity (ln)": "9.505 ± 0.064"}
{"sequence": "ATACATTCAAAATATACACACATATATCTATAATAT [CACACA_site6576]", "gcPBM binding intensity (ln)": "9.92 ± 0.028"}
{"sequence": "ATTTAATTTTTTTTTAAACACACATTTTTTTATTTA [CACACA_site8880]", "gcPBM binding intensity (ln)": "9.84 ± 0.099"}
{"sequence": "GCTTATGCTCAATATTGTACTTTTTTTATTTATTCA [XGTACX_site8863]", "gcPBM binding intensity (ln)": "11.3 ± 0.84"}
{"sequence": "TACTTCTTTTTTATTTATTTTACTTTTTATTCTGTA [CACACA_negctrl_site772]", "gcPBM binding intensity (ln)": "9.82 ± 0.15"}
{"sequence": "TTCAATTATATTCTTTGTACGAATCTTCTATAAATT [XGTACX_site4346]", "gcPBM binding intensity (ln)": "10.9 ± 0.62"}
{"sequence": "AAAATTATTAAATATGTACACACGTACATTTTATAA [CACACA_site8750]", "gcPBM binding intensity (ln)": "11.6 ± 0.88"}
{"sequence": "ATATATATATATATATGTACATATACACATGTGTGC [XGTACX_site168]", "gcPBM binding intensity (ln)": "11.2 ± 0.55"}
{"sequence": "AAATAAATAATAAATAAATAAATAAAATACCAAATA [GTGCAC_negctrl_site620]", "gcPBM binding intensity (ln)": "9.915 ± 0.035"}
{"sequence": "TATAAATATGTGTATACACACCTGATAAAGGTATAT [CACACA_site7283]", "gcPBM binding intensity (ln)": "10.1 ± 0.014"}
{"sequence": "CACACCCACAAAAACACACACAAAGGTGTTCTTATA [CACACA_site1293]", "gcPBM binding intensity (ln)": "10 ± 0.13"}
{"sequence": "ATATAAAAAGTGTATCGTACATTTACTTATTTTATA [XGTACX_site6249]", "gcPBM binding intensity (ln)": "10.9 ± 0.49"}
{"sequence": "ATAAAAAAAGGACACACACACATATATATATATATA [CACACA_site5662]", "gcPBM binding intensity (ln)": "11.4 ± 0.95"}
{"sequence": "ATTGAAAATTGTTGCACACATAATAATTAAATATAT [CACACA_site1857]", "gcPBM binding intensity (ln)": "10.1 ± 0.14"}
{"sequence": "TGTAGTCTGGAGAAACGTACATAGTATCTGGTAACC [XGTACX_site4939]", "gcPBM binding intensity (ln)": "11.3 ± 0.93"}
{"sequence": "TATTTATTTTTTTGCACACATATTTTACATTTTAAT [CACACA_site3181]", "gcPBM binding intensity (ln)": "10.2 ± 0.11"}
{"sequence": "ATAACATTCATATTCACACAAAAATATACTACATAG [CACACA_site4529]", "gcPBM binding intensity (ln)": "9.965 ± 0.021"}
{"sequence": "TATATATATATATATACACACATATATATATTTATA [CACACA_site627]", "gcPBM binding intensity (ln)": "10 ± 0.8"}
{"sequence": "TATATTTCTTATTTCTTATTTTGTCATCACCTTTTT [CACACA_negctrl_site1115]", "gcPBM binding intensity (ln)": "9.82 ± 0.11"}
{"sequence": "TTACATAATATATGTACACACGCAAATACTTATAAT [CACACA_site7995]", "gcPBM binding intensity (ln)": "11.5 ± 0.95"}
{"sequence": "TATAAATATGTTCTTACACACACGAATATAAATATG [CACACA_site7537]", "gcPBM binding intensity (ln)": "10.19 ± 0.071"}
{"sequence": "AAAAAAATCACATAAAATACTTTATTTTATATTATA [GTGCAC_negctrl_site372]", "gcPBM binding intensity (ln)": "9.78 ± 0.18"}
